The source of these data is paper PMC4336329 (PLoS ONE, 2015).

Screen size: about 310,000 compounds; about 14,000 (4.5%) showed an effect of 50% or more. Effects have a minus sign here. Some of the results follow.
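Note: peak tail current of the secondary pulse compared with the same well before compound.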

The target of this assay is human ether-à-go-go-related gene (hERG) potassium channel (human, UniProt Q12809). The assay can be described thus: primary screen, population patch clamp on CHO cells stably expressing hERG.
Chain of human ether-à-go-go-related gene (hERG) potassium channel (Q12809 whole entry, looked up): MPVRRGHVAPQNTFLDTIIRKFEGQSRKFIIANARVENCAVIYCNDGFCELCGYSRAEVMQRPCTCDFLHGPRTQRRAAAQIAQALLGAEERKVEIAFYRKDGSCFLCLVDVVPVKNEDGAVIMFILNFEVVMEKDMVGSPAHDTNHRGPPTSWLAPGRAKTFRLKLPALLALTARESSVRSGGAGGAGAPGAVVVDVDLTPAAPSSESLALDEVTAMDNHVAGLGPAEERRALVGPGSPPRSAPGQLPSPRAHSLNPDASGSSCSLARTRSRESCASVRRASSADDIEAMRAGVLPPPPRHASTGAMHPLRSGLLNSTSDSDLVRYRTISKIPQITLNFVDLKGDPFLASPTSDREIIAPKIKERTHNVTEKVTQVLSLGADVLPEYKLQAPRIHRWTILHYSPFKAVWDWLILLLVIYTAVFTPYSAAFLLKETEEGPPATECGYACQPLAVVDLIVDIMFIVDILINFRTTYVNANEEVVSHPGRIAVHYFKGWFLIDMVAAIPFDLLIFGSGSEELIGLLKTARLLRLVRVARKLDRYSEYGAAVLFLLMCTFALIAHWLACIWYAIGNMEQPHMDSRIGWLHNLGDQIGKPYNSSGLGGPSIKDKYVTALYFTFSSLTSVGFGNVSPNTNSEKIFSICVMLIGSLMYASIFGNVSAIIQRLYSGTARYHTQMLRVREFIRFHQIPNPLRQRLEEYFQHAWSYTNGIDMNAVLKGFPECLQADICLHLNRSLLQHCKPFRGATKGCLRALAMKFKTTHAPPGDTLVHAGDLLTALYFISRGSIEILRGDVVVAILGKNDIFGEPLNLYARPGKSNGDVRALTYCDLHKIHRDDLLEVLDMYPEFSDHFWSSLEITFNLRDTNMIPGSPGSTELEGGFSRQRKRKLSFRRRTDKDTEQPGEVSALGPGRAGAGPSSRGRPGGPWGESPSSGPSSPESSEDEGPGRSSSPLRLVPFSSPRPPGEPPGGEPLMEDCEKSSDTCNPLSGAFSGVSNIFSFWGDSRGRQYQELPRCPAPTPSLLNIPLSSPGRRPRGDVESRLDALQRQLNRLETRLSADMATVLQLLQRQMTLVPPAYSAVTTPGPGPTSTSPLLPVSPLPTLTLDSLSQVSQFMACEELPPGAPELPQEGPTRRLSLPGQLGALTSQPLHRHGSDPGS
On to `Cc1c(N)cccc1[N+](=O)[O-]`, for which the “hERG current change (%, negative = inhibition) at 10uM” value is recorded as 17.7%. Regarding `CC(=O)c1ccc(NC(=O)C(C)Nc2ccc(Cl)cc2)cc1` (stereo not shown), the “hERG current change (%, negative = inhibition) at 10uM” value is listed as -4.45%. Next, `Cc1c(Cl)cccc1NC(=O)CN(C1CCCCC1)S(C)(=O)=O`: 10.7%; `COc1ccc(-c2[nH]ncc2/C=C(/C#N)C(=O)NC2CCCCCC2)cc1`: -1.72%; `NS(=O)(=O)c1cccc(NC(=O)CCSc2ccccc2Cl)c1`: -0.609%. Consider `CCCNC(=O)CN(Cc1ccccc1F)S(=O)(=O)c1ccc(C)cc1`, for which the “hERG current change (%, negative = inhibition) at 10uM” value was -6.17%. The result for `COc1ccc(/C=C2\SC(=Nc3ccccc3OC)NC2=O)cc1` reads 8.4%; that for `Cc1ccc2c(c1)C1C=CCC1C(C(=O)O)N2` (stereo not shown), 1.68%. The result for `CCOCC(=O)Nc1nc2ccc(OCC)cc2s1` reads 9.9%; that for `NC(=O)C1CC(O)CN1c1nc(CN2CCOCC2)nc2scc(-c3ccccc3)c12` (stereo not shown), -6.13%; that for `CS(=O)(=O)C1=NN2C(=N)/C(=C\c3ccc(OC(=O)c4ccco4)cc3)C(=O)N=C2S1`, 8.77%. Take `O=C(Nc1cc(S(=O)(=O)N2CCCC2)ccc1OCC(F)(F)F)c1ccc(F)cc1`: the “hERG current change (%, negative = inhibition) at 10uM” value turned out to be 2.57%. Next, `COc1ccc(Cn2cnc3c4cc(F)ccc4n(C)c3c2=O)cc1`: 9.87%; `Cc1c(CC(=O)NCC(=O)NCC(=O)O)c(=O)oc2cc3oc4c(c3cc12)CCCC4`: 8.31%; `Cc1ccc(N2CC(C(=O)Nc3ccc(S(=O)(=O)Nc4ncccn4)cc3)CC2=O)cc1C` (stereo not shown): 14.6%.

Take `O=C(NCC1(c2ccccc2)CCCC1)C1(c2ccccc2)CCCC1`: the “hERG current change (%, negative = inhibition) at 10uM” value was -11.4%.

Regarding `Cc1sc2ncnc(NCCc3ccc(S(N)(=O)=O)cc3)c2c1C`, the “hERG current change (%, negative = inhibition) at 10uM” value is reported as 12.6%. The result for `CC(C)OC(=O)CC12CN3CC(CC(=O)OC(C)C)(CN(C1)C(=O)c1ccccc1C3=O)C2=O` reads 5.46%; that for `N=C1SCC(=O)N1c1nc(-c2ccccc2)cs1`, 13%. Next, `CCCC(=O)N(Cc1cc2cccc(C)c2[nH]c1=O)c1ccccc1OC`: -3.78%; `CSc1ccc(Cl)c(C(=O)N2CCN(c3ncccn3)CC2)c1`: -33%; `COc1ccc(NC(=O)C(C)Oc2ccc(/C(C)=N\O)cc2)cc1` (stereo not shown): 5.55%. Next, `O=c1c2ccccc2ncn1-c1ccccc1C(F)(F)F`: -1.92%. Consider `Cc1ccc(C(=O)C2CCN(CC(=O)NCc3ccc(F)cc3)CC2)cc1`, for which the “hERG current change (%, negative = inhibition) at 10uM” value was -53.3%. For `CCn1c(=O)n(CC)c2cc([N+](=O)[O-])c(N3CCNCC3)cc21`, the “hERG current change (%, negative = inhibition) at 10uM” value is 30.5%. Next, `CCN(CC)S(=O)(=O)c1ccc(C(=O)NCCCN=C2NS(=O)(=O)c3ccccc32)cc1`: -5.24%; `COc1cccc(C(=O)NOCc2ccc(C)cc2)c1OC`: -7.01%. The result for `CC(C)(C)c1ccc(NC(=O)c2ccc(=O)[nH]n2)cc1` reads -10.8%. The result for `COc1cccc(C2C(C(=O)c3cc4cccc(OC)c4o3)=C(O)C(=O)N2c2cc(C)on2)c1OC` (stereo not shown) reads 3.48%. On to `Cc1c(NC(=O)Nc2ccc3c(c2)OCO3)c(=O)n(-c2ccccc2)n1C`, for which the “hERG current change (%, negative = inhibition) at 10uM” value is -6.35%.

`CSc1nc2ccccc2c(=O)n1Cc1ccc(F)cc1`: the “hERG current change (%, negative = inhibition) at 10uM” value was determined as 15.4%. Consider `CC1CCCC(C)N1/N=C/c1ccccc1C(=O)O` (stereo not shown), for which the “hERG current change (%, negative = inhibition) at 10uM” value is listed as 15.6%. The result for `COC(=O)c1onc(-c2c(OC)cc(OC)cc2OC)c1C(=O)OC` reads 4.47%; that for `O=C(Nc1ccc(C(=O)O)cc1)Nc1ccc([N+](=O)[O-])cc1`, 24.7%; that for `O=C(Nc1nc(-c2cccc(Br)c2)cs1)Oc1ccccc1`, 8.42%.

As to `Cc1ccc(C)c(NC(=O)c2cnc3n(c2=O)CCS3)c1`, the “hERG current change (%, negative = inhibition) at 10uM” value was determined as 7.09%.

`Cc1ccc(C(=O)NC(Cc2c[nH]c3ccccc23)C(=O)O)cc1` (stereo not shown): the “hERG current change (%, negative = inhibition) at 10uM” value is listed as -3.25%. The result for `CC(C)c1ccc(NC(=O)CSc2nc(=O)n(CCCN3CCOCC3)c3c2CCCC3)cc1` reads -39.7%.

Consider `Cc1cc(=O)n2nc(N3CCC(C(=O)NCc4ccc(F)cc4)CC3)sc2n1`, for which the “hERG current change (%, negative = inhibition) at 10uM” value was -55.5%. The result for `COc1ccc(Cc2nc3ccc(C(=O)N(C)CCO)cc3o2)cc1` reads 6.1%; that for `O=C(Nc1nccs1)C1CCCN1S(=O)(=O)c1ccc(Cl)cc1` (stereo not shown), 0.446%; that for `CCCn1c(SC(C)C(=O)NCC2CCCO2)nc2sc3c(c2c1=O)CCC3` (stereo not shown), -13.4%. Next, `CCS(=O)(=O)Nc1cc(C(=O)O)ccc1C`: -44.8%; `Cc1c(Cl)cccc1NC(=O)c1cccc(NC(=O)CCC(=O)O)c1`: -0.799%; `N#Cc1ccc(CC(C(=O)O)N2Cc3ccccc3C2=O)cc1` (stereo not shown): 25.3%.

As for `CCN(CC(=O)Nc1c(F)cccc1F)C(=O)c1ccc2ncsc2c1`, the “hERG current change (%, negative = inhibition) at 10uM” value is on record as 9.79%. Next, `O=C(NC1CCCCCCC1)c1ccc(Br)o1`: -12.7%; `CC1CCN(c2ccc([N+](=O)[O-])c(SCCO)c2)CC1`: -11.4%. The result for `CCCn1cc(S(=O)(=O)CC(=O)N2CCc3ccccc32)c2ccccc21` reads -7.94%; that for `Fc1ccc(NCc2ccccc2F)cc1Cl`, -139%. The result for `CC(C)=NN1C(c2nonc2N)=NOC1(C)C` reads 6.47%. On to `COc1cccc(CNC(=O)C2CCN(c3ncnc4c3nc3n4CCCCC3)CC2)c1`, for which the “hERG current change (%, negative = inhibition) at 10uM” value came out at 16.7%. Next, `COC(=O)[C@@](C)(O)C1(C(=O)SC(C)(C)C)CC1`: 1.25%; `O=C(CCCc1ccccc1)NCc1ccccn1`: 11.6%; `CCCCOc1ccc(C(=O)OCC(=O)NC2CCCC2)cc1`: 6.06%. The result for `Cc1cc(NC(=O)c2noc3c2CCc2ccccc2-3)n(-c2ccccc2)n1` reads 4.18%; that for `CC(C)c1c(C(=O)N/N=C/c2cccnc2)nnn1-c1nonc1N`, 15.4%; that for `O=C1C(=O)N(CCc2c[nH]c3ccccc23)C(c2cccnc2)/C1=C(/O)c1ccccc1` (stereo not shown), 2.24%.
